Source: the supplement of paper PMC3334620
Over roughly 33,000 sequences, “E-score (-0.5 to 0.5)” has its median near -0.021; the highest 2% begin near 0.32. Some of the results follow.

What follows are sequences tested against T1, Zap1 (UniProt P47043) (assay: PBM E-score (8-mer binding enrichment) (E-score (-0.5 to 0.5)); higher = stronger / more preferred TF binding; most listed sequences are background and not binding sites). Conditions: protein concentration: 200 nM; construct: GST-full length.
T1 sequence: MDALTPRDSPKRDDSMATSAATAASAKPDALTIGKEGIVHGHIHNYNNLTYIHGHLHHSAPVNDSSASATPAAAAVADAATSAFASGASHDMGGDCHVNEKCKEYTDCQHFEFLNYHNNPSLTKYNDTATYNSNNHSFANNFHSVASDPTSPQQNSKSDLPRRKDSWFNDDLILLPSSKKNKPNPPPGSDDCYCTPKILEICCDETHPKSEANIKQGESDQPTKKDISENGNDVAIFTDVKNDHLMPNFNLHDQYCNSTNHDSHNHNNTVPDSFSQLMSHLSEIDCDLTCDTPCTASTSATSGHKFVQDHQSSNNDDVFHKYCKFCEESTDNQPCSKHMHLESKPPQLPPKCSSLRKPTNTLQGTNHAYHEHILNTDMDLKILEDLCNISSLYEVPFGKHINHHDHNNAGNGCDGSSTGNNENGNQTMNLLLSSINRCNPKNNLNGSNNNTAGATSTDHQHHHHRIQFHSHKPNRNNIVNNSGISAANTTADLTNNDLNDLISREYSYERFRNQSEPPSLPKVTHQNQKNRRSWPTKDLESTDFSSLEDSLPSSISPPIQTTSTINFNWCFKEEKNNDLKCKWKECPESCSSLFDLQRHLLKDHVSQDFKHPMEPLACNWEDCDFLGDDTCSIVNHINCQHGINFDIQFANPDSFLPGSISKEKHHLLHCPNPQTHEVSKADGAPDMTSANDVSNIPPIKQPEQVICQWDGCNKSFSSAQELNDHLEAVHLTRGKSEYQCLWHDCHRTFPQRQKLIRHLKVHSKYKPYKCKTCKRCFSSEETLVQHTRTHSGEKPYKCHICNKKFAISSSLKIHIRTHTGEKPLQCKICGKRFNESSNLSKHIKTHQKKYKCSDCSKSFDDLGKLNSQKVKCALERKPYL
How it was run: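 Bound GST-tagged yeast transcription factors, applied at about 100-200 nM to double-stranded universal all-10-mer Agilent arrays, were detected with fluorescent anti-GST. Scans were normalised with masliner. A modified Wilcoxon-Mann-Whitney statistic, the E-score, was assigned to each ungapped eight-base word pooled with its reverse complement by the Universal PBM Analysis Suite.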

Row | Sequence | PBM E-score
1 | CGGCAAAC | 0.00436
2 | ACATCGCT | -0.0744
3 | GGACTGTA | -0.0595
4 | AGGTTCCA | 0.154
5 | AATGCGGT | 0.125
6 | CCTCCAGA | 0.161
7 | AGGCAGAT | -0.158
8 | TAATTAAA | 0.0873
9 | GGAGTCCA | -0.0805
10 | ATCATTGG | -0.0596
11 | CATCCCTC | -0.0744
12 | TAAATGCA | 0.176
13 | AAGAGAAG | -0.0962
14 | AGCGTTGC | -0.207
15 | TAATCGCA | 0.113
16 | AGTCAGAG | -0.208
17 | AGTGTTGC | -0.0481
18 | CAACGGCG | -0.187
19 | ACTCCGCC | -0.282
20 | ACTCACCC | -0.0932
21 | TAGAACGA | 0.00851
22 | AGGTTCGC | -0.211
23 | AATATGTA | 0.154
24 | ACGACAGG | -0.00506
25 | TGAACGAA | -0.0226

Row | Sequence | PBM E-score
26 | CAAGTGAA | 0.102
27 | ATACACCC | 0.154
28 | GATTGCAA | 0.0195
29 | ACAGTAGC | -0.155
30 | AGATGCGC | -0.266
31 | CTGAGAGC | -0.316
32 | AGAGGTCC | 0.201
33 | CGAACTAC | -0.00887
34 | ACTATAAC | 0.21
35 | GCCGACGA | -0.0808
36 | ACGTAGAC | -0.223
37 | CGATTCGC | -0.0502
38 | CCGCATAA | 0.212
39 | CCAAGAAG | 0.0253
40 | AAATCTTA | 0.107
41 | CTTTCGTC | -0.0866
42 | CGGCACTA | -0.15
43 | ACTATTCG | 0.00801
44 | CTGACATA | -0.067
45 | ACCGAGCC | -0.278
46 | TACTAGGA | 0.051
47 | CCAATCGG | -0.148
48 | AGGACACT | -0.0837
49 | AGAAAAGC | -0.0239
50 | GGCGCACA | -0.287

Row | Sequence | PBM E-score
51 | GACGAGAA | -0.00906
52 | TAATATCA | 0.0712
53 | CGTAAAGC | -0.225
54 | TTGGGAAA | 0.163
55 | CTCATCCA | -0.0641
56 | ATCTTACA | -0.00376
57 | CCCGGTAG | 0.0897
58 | GTGCCACA | -0.29
59 | AAAGGTCA | 0.449
60 | ATGTTGCA | -0.121
61 | GGGACGAC | -0.145
62 | TACCATAA | 0.367
63 | AGCGACGA | -0.256
64 | TACAATAA | 0.212
65 | AGAGACCG | 0.124
66 | ATTGTCAC | 0.108
67 | GCCCAATA | 0.0964
68 | CCTAACCA | 0.309
69 | GGGTAGCA | 0.186
70 | TCACCAGA | 0.015
71 | GGTCGTTA | 0.159
72 | CCCCGCTA | 0.00458
73 | AGGCGGCG | -0.125
74 | CACTGCCC | -0.19
75 | CATCCGAA | 0.068

Row | Sequence | PBM E-score
76 | CGGCCGTC | -0.0777
77 | AAAGCGGA | -0.0151
78 | CTTGGAGC | -0.373
79 | GCACCTCC | -0.116
80 | GCCGTATA | 0.0734
81 | CATGGAGC | -0.0785
82 | CGTTAAAA | 0.0117
83 | ACTATCCC | -0.221
84 | CGGGTAAG | -0.078
85 | ACCCCCGG | -0.0785
86 | GGAACACA | 0.0058
87 | AAGAGCGC | -0.0346
88 | AACGGTAT | 0.0478
89 | CGCACAGC | -0.212
90 | CGCGGATC | -0.0146
91 | GCCCCTCC | -0.056
92 | AATGGGTA | 0.287
93 | CCCAGTAC | -0.124
94 | CCTGCATA | -0.0917
95 | AGGACTTA | -0.167
96 | AAGTAAGG | 0.0538
97 | TACTCGAA | -0.0192
98 | AAAGCATC | -0.115
99 | AGTTCCCC | -0.167
100 | AATCGACC | 0.0231

Row | Sequence | PBM E-score
101 | GTGATCAC | 0.231
102 | ATGGGGAA | 0.0321
103 | AGTGAAGC | -0.0995
104 | AAGGGGGC | -0.336
105 | AGCTGAAC | -0.182
106 | AAATCTGG | 0.168
107 | GGTAAACA | 0.205
108 | ATATAATG | 0.0611
109 | ACTGTGGG | -0.145
110 | AGATTGCA | 0.0608
111 | CCGGGCAA | -0.2
112 | CGTAGATA | -0.197
113 | GCGACACA | -0.085
114 | CACCAGTC | -0.137
115 | ATCGTAGG | 0.0884
116 | GCGTTACC | 0.0732
117 | CCGCGAGC | -0.139
118 | GGGAGACA | -0.19
119 | AATGTGCC | -0.265
120 | GTGTCGCA | -0.0901
121 | CCCGCGTC | 0.0232
122 | TCCTTTAA | 0.0669
123 | GAGTAGCC | -0.029
124 | CGAGTGAC | -0.0196
125 | CGGGTTAC | 0.439

Row | Sequence | PBM E-score
126 | ACTTTGCT | -0.225
127 | GCTGCAGC | -0.0886
128 | TAAGGTAA | 0.271
129 | GCGGATTA | 0.0247
130 | AACGGATC | 0.0545
131 | CGATTAGC | -0.148
132 | ATCATTCA | 0.107
133 | CGCTAGAG | -0.106
134 | CTTCAGGC | -0.133
135 | CAAGGGTG | 0.262
136 | GAGGTGTA | -0.163
137 | CTACCGTC | 0.145
138 | CTAGAGAG | -0.00179
139 | ACCCCTTA | 0.344
140 | GGAACGAA | 0.0755
141 | GTGTAAGA | -0.0244
142 | GCTTCGAA | 0.153
143 | AGACAACT | -0.0655
144 | ATATGTGG | 0.0354
145 | CTGCGCGA | -0.123
146 | GCCTTTAA | 0.0959
147 | AATTCGGC | -0.136
148 | CGTCATAC | 0.0441
149 | GAGAGAGA | -0.158
150 | CCGTCCCA | -0.0821

Row | Sequence | PBM E-score
151 | ATGATAAT | 0.0564
152 | ATGCTCGA | -0.105
153 | GGCCTGGA | -0.146
154 | CACAAGTC | 0.0234
155 | CTTTGACA | 0.0496
156 | CACCAGCC | -0.00221
157 | ACGGATAC | 0.234
158 | TATAGCGA | -0.00906
159 | CTTCGCAA | -0.00995
160 | GGGCCATA | 0.0915
161 | TCTCTTAA | -0.0368
162 | AAACATGA | 0.141
163 | ACCGGTAG | 0.131
164 | GATGGGTA | 0.128
165 | AAAGTGGC | -0.0301
166 | AATAATCG | 0.084
167 | GCTCATAA | 0.0749
168 | ATCAGGTC | -0.0975
169 | AGTGTCCC | 0.0964
170 | ATCTTCCA | -0.0755
171 | GCCTGTAA | 0.00746
172 | ATATCTAC | -0.036
